In all, about 320,000 compounds went through this assay and about 200 (0.062%) were called active. The inconclusive results got no clear call from the source; some entries with a clear call stand among them for comparison. The call rests on the fitted dose curve; in most records, active means well fitted activation curve with a large enough effect; inconclusive means small, poorly fitted or top-dose-only effect; inactive means no such curve, though single readings can be large or run the other way. Potencies of inconclusive entries are left out as doubtful fits.
Experiment: qHTS assay for re-activators of p53 using a Luc reporter; further: nearly all actives have a fitted effect of over 45% in size
Details: H1299 p53-A138V BP100-luciferase reporter, luminescence, 24 h; series mostly up to 92.2 µM
Outline: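 H1299 (p53-null), stable ts p53-A138V + BP100-Luc; 1000 cells/well, Opti-MEM/10% FBS; cpd 4 pt, 1:5; 24 h, 37 deg C, 5% CO2; detection reagent 10 min RT; luminescence.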
Potency means the concentration at half of the fitted maximal effect; tags describe the fitted curve by direction and shape.

SMILES | Potency
CCC(=O)NC(=S)Nc1ccc(-c2nc3ccc(C)cc3s2)cc1 | inconclusive [activator, partial curve, poor fit]
Cn1cc(Cl)c(C(=O)Nc2nc3ccccc3s2)n1 | inconclusive [activator, partial curve, poor fit]
CCn1nnnc1SCC(=O)Nc1ccc(OC)cc1 | inconclusive [activator, partial curve, poor fit]
COc1cc(C(=S)N2CCOCC2)cc(OC)c1OS(=O)(=O)c1ccc(Cl)cc1 | inconclusive [activator, single point]
COc1ccc(CSc2nnc(C)s2)cc1F | inconclusive [activator, partial curve, poor fit]
Fc1ccccc1NC(=S)NCc1ccc2c(c1)OCO2 | inactive
Cc1ccccc1NS(=O)(=O)c1ccc(C(=O)NNC(=O)c2ccccc2O)cc1 | inactive
O=C(Nc1nnc(C2CCCCC2)s1)c1ccco1 | inconclusive [activator, partial curve, poor fit]
O=C(N/N=C/c1ccncc1)c1ccc2c(c1)OCO2 | inactive
CCCN(CCC)CC(O)COc1ccc2c(c1)OCO2 (stereo unspecified) | inactive
CC(=O)C1=C(NC(=O)c2ccc(F)cc2)CC2C1C2(C)C (stereo unspecified) | inactive
Cc1cccc(NC(=S)NNC(=O)c2csc(C)c2)c1 | inconclusive [activator, partial curve, poor fit]
O=C(Nc1ccnc(-c2ccncc2)n1)c1ccccc1Cl | inactive
O=C(CN(Cc1ccc2c(c1)OCO2)C(=O)c1cnsn1)NC1CCCC1 | inconclusive [activator, single point]
CCCCN(Cc1ccccc1)c1ncnc2nc[nH]c12 | inconclusive [activator, full curve, poor fit]
NS(=O)(=O)c1ccc(N=Nc2c[nH]c(=O)c(O)c2)cc1 | inactive
Cc1nnc(SCC(=O)c2c[nH]c3ccccc23)n1C1CC1 | inconclusive [activator, partial curve, poor fit]
CCC(C(=O)NC(C)(C)C)N(Cc1ccccc1Cl)C(=O)c1snc(C(N)=O)c1N (stereo unspecified) | inconclusive [activator, single point]
Cc1cc(C(=O)Cn2nnc3ccccc3c2=O)c(C)n1-c1ccccc1F | inconclusive [activator, full curve, poor fit]
Cc1ccc(-n2c(-c3cnccn3)n[nH]c2=S)c(Br)c1 | inactive
COc1ccc(CCNS(=O)(=O)c2ccc(Br)cc2)cc1OC | inconclusive [activator, partial curve, poor fit]
CCn1c(CNC(C)=O)nnc1SCC(=O)c1ccc(Br)cc1 | inactive
Cc1ccc(N=CNc2ccc(C)cc2C)c(C)c1 | inactive

SMILES | Potency
CC1CCN(C(=O)CSc2nnc3ccccn23)CC1 | inconclusive [activator, partial curve, poor fit]
CC(=O)c1sc(NC(=O)c2ccc(C)c(C)c2)nc1C | inconclusive [activator, single point]
Cc1ccc(-c2csc(N)n2)s1 | inconclusive [activator, partial curve, poor fit]
Cc1ccc(-c2nnc(-c3ccc(Br)cc3)o2)o1 | inconclusive [activator, full curve, poor fit]
CCCCn1c(/N=C/c2ccc3c(c2)OCO3)nc2ccccc21 | inactive
CCN(CC)CCN1C(=O)C(=O)/C(=C(/O)c2c(C)[nH]c(C(=O)OC)c2C)C1c1ccccc1 (stereo unspecified) | inconclusive [activator, single point]
Clc1ccc2c(N/N=C/c3ccc(Br)cc3)ccnc2c1 | inactive
COc1cc(C(O)P(=O)(OC2CCCCC2)c2ccc(N(C)C)cc2)cc(OC)c1OC (stereo unspecified) | inactive
O=C(N/N=C/c1c(O)ccc2ccccc12)c1ccc(CO)nc1 | inconclusive [activator, partial curve, poor fit]
CCC[n+]1cn(/C(C(=S)Nc2cccc(Cl)c2C)=C(/[O-])c2ccc(OC)c(OC)c2)c2ccccc21 | inactive
NC(N)=N/N=C/c1ccc(OS(=O)(=O)c2ccccc2)cc1 | inactive
Cc1ccc(-n2nnc3c(SCC(=O)NCc4ccco4)ncnc32)cc1 | inconclusive [activator, single point]
O=C(NCc1ccccc1Cl)C1CCN(S(=O)(=O)c2cccs2)CC1 | inconclusive [activator, single point]
Cc1cccc(OCc2nc(-c3nonc3N)no2)c1C | inconclusive [activator, partial curve, poor fit]
Nc1ccc2c(c1)sc1ccccc12 | inconclusive [activator, partial curve, poor fit]
CC(C)(C)NC(=O)Cn1nnc(-c2cccs2)n1 | inconclusive [activator, partial curve, poor fit]
COc1ccc(-c2csc(NC(=O)C3CCCO3)n2)cc1 (stereo unspecified) | inconclusive [activator, partial curve, poor fit]
Cc1ccn2c(NC3CCCCC3)c(-c3cccc(-c4cccc(Cl)c4)c3)nc2c1 | inactive
O=C(N/N=C(\Cc1ncc[nH]1)c1ccccc1)c1ccncc1 | inconclusive [activator, partial curve, poor fit]
CC1CCCCC1NC(=O)c1ccc(N2CCCC2=O)cc1 (stereo unspecified) | inconclusive [activator, single point]
Cn1c(C(=O)NC2CCCCC2)cc2sccc21 | inconclusive [activator, partial curve, poor fit]
Cc1c(C(=O)O)oc2c3c(ccc12)OCCO3 | inactive
CCOc1ccc(N2CC(C(=O)NCCN3C(=O)S/C(=C\c4ccc(OC)cc4)C3=O)CC2=O)cc1 (stereo unspecified) | inconclusive [activator, partial curve, poor fit]
